According to paper PMC6377148:
Results are given in words; binding and its absence hold for the method and conditions named. In cells and extracts the contact can be indirect. Some entries that bind do so weakly or less than the wild type. For some of these results: Sequences can lack the tags named with a protein.

Protein sequences, listed by entry. Tags and fused reporters are not part of them.
UniProt Q92547: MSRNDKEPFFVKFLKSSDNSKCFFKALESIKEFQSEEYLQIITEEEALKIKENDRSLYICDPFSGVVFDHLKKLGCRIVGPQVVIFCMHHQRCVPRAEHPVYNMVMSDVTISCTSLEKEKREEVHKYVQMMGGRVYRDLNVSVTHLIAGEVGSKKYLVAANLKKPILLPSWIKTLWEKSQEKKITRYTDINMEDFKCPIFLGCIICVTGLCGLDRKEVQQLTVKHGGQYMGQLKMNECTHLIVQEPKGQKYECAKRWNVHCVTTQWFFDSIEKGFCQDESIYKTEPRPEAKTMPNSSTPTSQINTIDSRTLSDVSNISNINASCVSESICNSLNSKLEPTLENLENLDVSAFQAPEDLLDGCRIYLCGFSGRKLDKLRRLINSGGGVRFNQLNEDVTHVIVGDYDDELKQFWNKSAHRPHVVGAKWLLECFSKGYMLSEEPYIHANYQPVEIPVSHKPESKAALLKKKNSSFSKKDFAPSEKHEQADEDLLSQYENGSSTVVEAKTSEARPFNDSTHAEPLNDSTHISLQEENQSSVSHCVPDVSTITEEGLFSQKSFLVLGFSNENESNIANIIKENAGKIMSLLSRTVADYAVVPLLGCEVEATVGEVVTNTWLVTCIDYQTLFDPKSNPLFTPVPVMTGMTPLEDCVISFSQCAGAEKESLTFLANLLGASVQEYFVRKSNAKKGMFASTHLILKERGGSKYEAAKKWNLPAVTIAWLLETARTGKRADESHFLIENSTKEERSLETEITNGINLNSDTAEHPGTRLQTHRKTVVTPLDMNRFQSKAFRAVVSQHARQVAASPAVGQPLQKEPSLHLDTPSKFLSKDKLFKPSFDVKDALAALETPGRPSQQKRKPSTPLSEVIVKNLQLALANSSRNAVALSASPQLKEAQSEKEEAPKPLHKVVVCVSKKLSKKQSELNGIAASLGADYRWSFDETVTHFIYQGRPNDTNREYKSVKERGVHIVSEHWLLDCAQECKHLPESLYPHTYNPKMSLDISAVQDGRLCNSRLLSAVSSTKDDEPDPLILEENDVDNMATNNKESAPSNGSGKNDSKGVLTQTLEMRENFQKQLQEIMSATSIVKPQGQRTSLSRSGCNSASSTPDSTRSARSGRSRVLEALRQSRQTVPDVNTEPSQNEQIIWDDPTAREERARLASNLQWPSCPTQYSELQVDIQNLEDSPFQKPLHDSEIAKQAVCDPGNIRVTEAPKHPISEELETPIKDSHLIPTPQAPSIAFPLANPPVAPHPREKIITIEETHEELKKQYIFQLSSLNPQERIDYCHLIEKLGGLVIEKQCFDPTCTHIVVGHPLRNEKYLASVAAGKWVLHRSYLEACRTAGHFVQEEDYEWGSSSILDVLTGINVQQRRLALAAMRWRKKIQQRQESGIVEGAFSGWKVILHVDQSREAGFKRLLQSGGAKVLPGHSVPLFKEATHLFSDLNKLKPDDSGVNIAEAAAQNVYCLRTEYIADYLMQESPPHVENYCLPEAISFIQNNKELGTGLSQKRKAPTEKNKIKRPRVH
UniProt P24863: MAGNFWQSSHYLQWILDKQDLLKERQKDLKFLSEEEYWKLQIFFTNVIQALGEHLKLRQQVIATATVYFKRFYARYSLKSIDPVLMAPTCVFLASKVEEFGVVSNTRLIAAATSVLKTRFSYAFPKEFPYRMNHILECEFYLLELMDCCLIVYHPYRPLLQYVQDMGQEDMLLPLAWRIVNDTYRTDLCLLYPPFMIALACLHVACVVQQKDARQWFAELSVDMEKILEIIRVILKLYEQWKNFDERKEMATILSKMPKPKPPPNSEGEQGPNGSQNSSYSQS
UniProt P49336: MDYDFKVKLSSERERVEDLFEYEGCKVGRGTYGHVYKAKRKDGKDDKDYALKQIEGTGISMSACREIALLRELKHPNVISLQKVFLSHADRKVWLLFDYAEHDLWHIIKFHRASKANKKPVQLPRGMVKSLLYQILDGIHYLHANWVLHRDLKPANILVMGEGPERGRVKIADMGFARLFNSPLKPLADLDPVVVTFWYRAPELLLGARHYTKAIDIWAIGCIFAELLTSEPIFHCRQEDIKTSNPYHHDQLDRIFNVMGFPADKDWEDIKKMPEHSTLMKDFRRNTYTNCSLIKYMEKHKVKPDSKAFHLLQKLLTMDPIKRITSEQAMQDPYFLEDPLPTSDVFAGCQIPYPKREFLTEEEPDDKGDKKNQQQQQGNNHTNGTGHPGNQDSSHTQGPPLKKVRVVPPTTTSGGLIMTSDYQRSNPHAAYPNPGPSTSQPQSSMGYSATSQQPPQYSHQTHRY
UniProt Q7Z2Z1: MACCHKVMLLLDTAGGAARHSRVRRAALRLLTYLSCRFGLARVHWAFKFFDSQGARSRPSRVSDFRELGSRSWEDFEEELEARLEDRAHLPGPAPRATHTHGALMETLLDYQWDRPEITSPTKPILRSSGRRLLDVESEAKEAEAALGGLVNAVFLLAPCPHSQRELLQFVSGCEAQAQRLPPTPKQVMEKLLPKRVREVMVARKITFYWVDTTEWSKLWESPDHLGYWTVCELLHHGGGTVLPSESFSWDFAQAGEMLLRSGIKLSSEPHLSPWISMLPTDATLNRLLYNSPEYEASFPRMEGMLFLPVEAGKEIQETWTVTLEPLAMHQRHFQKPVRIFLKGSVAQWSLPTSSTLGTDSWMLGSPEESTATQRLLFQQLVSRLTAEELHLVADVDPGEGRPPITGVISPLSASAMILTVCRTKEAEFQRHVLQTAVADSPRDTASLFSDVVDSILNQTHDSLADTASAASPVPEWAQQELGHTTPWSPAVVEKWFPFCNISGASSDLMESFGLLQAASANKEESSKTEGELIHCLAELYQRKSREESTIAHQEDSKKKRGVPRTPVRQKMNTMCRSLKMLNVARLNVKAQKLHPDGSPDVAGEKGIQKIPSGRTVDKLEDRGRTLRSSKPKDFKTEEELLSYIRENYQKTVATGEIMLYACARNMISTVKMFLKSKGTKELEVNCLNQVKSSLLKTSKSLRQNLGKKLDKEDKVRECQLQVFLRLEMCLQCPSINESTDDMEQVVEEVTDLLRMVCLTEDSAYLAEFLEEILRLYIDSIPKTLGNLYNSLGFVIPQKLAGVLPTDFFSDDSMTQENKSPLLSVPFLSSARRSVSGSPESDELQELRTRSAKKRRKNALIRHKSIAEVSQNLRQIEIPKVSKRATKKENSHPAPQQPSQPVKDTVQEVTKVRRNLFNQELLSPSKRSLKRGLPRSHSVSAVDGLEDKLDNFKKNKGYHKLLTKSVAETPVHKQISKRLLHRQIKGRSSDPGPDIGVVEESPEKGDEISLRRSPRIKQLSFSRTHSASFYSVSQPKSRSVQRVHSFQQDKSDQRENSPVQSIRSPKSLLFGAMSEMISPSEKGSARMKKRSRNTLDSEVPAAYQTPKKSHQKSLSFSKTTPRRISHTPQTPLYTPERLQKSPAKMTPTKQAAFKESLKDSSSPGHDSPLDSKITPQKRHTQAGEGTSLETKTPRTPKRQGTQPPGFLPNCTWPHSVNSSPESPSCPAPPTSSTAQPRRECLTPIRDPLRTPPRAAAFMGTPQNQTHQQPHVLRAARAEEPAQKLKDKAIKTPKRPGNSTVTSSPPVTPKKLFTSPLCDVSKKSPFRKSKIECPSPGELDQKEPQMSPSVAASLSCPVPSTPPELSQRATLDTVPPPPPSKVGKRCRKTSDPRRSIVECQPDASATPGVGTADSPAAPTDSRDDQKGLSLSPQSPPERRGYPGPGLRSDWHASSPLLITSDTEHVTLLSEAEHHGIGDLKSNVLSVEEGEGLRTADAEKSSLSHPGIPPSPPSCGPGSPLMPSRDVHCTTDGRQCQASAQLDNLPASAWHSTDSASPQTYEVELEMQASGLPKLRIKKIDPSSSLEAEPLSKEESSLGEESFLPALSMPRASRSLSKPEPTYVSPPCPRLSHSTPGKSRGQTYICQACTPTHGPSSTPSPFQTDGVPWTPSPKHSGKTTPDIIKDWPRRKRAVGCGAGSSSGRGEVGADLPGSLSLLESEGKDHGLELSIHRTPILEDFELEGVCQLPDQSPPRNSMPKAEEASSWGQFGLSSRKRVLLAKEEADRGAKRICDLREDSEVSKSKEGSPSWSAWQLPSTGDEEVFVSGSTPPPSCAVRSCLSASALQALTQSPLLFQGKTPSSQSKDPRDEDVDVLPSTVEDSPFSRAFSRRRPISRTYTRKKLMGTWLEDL
UniProt Q9UHV7: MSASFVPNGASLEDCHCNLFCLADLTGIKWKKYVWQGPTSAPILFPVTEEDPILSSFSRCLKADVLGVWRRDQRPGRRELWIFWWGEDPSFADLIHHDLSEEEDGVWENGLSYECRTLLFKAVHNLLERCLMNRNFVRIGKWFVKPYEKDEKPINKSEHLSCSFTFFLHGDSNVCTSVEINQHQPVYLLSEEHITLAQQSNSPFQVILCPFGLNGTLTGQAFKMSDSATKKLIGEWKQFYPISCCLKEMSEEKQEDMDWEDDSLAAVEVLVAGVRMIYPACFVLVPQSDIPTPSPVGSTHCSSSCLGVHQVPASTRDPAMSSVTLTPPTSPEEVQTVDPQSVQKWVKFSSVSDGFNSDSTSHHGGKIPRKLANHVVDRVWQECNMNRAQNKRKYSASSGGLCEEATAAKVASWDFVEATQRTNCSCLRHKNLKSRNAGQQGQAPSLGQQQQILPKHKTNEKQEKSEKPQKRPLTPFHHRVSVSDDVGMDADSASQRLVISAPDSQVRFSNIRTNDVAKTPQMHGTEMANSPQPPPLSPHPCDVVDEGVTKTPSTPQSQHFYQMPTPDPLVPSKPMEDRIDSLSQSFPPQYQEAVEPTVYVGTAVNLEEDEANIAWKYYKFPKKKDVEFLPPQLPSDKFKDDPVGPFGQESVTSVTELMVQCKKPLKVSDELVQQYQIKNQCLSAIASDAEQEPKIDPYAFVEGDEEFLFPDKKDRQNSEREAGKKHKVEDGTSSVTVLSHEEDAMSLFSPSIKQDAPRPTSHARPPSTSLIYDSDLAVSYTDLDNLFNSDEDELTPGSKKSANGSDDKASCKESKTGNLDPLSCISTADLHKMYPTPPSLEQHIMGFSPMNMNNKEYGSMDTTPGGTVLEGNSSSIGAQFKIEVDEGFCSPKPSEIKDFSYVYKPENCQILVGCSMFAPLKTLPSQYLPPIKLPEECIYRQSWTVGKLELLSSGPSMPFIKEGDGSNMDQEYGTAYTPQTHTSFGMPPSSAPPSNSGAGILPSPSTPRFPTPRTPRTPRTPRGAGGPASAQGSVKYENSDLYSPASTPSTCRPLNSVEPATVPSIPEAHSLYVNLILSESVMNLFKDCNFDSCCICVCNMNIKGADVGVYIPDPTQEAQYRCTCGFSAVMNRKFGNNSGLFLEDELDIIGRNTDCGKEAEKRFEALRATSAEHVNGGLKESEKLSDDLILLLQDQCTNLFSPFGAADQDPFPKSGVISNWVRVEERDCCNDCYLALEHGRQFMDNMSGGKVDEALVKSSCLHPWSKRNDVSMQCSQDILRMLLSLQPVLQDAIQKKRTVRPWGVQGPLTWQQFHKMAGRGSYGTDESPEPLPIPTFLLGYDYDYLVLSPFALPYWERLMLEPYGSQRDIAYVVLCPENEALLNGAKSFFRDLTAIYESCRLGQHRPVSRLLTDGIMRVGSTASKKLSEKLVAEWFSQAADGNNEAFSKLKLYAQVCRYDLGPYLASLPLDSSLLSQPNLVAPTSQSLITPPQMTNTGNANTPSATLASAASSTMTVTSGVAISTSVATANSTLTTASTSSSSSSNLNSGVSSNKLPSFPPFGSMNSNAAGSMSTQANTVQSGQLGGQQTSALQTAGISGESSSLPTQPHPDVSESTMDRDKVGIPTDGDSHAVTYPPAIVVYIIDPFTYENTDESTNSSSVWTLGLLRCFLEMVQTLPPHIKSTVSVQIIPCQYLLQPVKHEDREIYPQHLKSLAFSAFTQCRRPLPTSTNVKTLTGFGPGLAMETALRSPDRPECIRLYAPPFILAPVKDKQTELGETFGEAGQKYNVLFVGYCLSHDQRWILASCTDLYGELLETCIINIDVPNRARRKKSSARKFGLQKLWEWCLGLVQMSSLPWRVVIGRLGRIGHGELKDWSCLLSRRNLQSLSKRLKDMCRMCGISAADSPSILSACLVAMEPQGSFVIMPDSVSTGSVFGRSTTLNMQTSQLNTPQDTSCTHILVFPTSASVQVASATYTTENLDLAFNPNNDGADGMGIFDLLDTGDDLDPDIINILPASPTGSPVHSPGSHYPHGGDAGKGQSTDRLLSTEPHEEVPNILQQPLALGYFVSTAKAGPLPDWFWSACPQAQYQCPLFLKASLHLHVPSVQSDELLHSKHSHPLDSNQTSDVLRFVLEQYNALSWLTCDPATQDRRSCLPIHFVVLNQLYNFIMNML

Assays:
[1] = molecular target: T1, MTBP TresBD fragment (Treslin/TICRR binding domain) (293T) (human) (UniProt Q96DY7); assay: co-IP; 293T transiently transfected with GFP-tagged MTBP or Treslin/TICRR; anti-GFP nanobodies on NHS sepharose, lysis buffer with 250 mM NaCl, 1 h at 4°C; endogenous partners by immunoblot
T1 sequence: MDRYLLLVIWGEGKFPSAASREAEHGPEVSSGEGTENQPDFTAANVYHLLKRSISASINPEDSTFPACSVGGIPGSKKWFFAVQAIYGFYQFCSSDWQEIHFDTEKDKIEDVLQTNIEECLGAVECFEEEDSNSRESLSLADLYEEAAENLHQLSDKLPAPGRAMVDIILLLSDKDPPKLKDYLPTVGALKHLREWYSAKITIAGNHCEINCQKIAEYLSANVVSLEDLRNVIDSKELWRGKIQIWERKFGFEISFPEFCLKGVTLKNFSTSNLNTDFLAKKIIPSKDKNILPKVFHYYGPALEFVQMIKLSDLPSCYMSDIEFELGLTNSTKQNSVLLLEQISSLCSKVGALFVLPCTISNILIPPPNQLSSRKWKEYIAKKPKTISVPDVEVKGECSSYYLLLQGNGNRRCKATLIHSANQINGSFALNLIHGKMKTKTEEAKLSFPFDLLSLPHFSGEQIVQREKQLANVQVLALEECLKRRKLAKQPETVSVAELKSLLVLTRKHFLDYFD

[2] = molecular target: T2, C-terminal MTBP-A516–K904 fragment (293T) (human) (UniProt Q96DY7); assay: as above
T2 sequence: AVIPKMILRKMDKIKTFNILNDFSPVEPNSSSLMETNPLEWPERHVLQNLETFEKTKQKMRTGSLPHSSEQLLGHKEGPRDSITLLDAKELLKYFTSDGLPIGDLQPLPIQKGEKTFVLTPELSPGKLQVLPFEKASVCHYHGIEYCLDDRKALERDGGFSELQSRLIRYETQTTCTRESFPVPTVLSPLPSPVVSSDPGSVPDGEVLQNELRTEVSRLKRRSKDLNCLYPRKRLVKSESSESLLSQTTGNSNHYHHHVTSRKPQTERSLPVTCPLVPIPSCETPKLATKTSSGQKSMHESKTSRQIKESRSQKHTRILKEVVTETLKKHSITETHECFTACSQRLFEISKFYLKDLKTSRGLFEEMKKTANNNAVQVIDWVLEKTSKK

[3] = molecular target: T3, MTBP-WT, C-terminally 3×Flag-tagged (293T) (human) (UniProt Q96DY7); assay: co-IP; 293T transiently transfected with C-terminally 3×Flag-tagged MTBP; anti-FLAG antibody on Protein G Dynabeads, lysis buffer 20 mM HEPES, 150 mM NaCl, 10% glycerol, 0.1% Triton X-100, 1 h at 4°C; endogenous Treslin/TICRR and Cdk8 by immunoblot
T3 sequence: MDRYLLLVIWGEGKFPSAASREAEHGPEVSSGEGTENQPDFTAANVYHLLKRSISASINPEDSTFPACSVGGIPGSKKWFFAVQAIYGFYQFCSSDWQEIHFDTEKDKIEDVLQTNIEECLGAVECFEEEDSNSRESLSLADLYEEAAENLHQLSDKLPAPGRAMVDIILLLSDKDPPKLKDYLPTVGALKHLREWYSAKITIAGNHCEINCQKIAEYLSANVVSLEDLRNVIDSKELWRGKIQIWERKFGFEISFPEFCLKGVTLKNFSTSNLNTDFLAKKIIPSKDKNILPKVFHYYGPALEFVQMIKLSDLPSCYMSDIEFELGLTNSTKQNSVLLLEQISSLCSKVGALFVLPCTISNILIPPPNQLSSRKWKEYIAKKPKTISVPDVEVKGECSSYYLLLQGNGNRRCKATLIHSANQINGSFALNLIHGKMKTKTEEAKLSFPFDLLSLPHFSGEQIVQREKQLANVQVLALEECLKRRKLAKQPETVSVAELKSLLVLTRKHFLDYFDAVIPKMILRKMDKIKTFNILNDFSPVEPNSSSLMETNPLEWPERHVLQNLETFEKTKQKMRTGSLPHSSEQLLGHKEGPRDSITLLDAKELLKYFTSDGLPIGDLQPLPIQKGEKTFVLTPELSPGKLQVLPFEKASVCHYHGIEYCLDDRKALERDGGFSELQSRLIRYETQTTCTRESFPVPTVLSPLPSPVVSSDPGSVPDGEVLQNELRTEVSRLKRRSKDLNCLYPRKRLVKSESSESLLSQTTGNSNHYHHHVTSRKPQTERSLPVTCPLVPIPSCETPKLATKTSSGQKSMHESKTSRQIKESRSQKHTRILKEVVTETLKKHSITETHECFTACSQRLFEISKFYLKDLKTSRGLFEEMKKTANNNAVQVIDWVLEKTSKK

[4] = molecular target: T4, MTBP fragment of amino acids R595 to P704 (293T) (human) (UniProt Q96DY7); assay: co-IP; 293T transiently transfected with N- or C-terminal MTBP fragments; IP from native lysates with anti-GFP (S12B panel i) or anti-Cdk8 (panels ii, iii); the panel of this fragment is not told
T4 sequence: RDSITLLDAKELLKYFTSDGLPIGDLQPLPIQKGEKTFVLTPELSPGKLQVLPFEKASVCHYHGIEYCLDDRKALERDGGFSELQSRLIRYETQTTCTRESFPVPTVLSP

[5] = molecular target: T5, MTBP (Mdm2 binding protein), endogenous (human (endogenous in HeLa and 293T)) (UniProt Q96DY7); assay: co-IP; antibodies to endogenous MTBP, cyclin C, Cdk8 or TopBP1 (control IgG) on Protein G Dynabeads in native lysates of HeLa Flip-In T-Rex, HeLa-Kyoto or 293T cells, 150 mM NaCl, 0.1% Triton X-100, 2 h at 4°C; unsynchronised or synchronised cells (M, G1, G1/S, S); TopBP1 IP with or without Cdk2-cyclin A and ATP added to the lysate
T5 sequence: T3 sequence

[6] = molecular target: T6, MTBP-WT, C-terminally Flag-GFP-tagged (293T) (human) (UniProt Q96DY7); assay: co-IP; 293T transiently transfected with GFP-tagged MTBP or Treslin/TICRR; anti-GFP nanobodies on NHS sepharose, lysis buffer with 250 mM NaCl, 1 h at 4°C; endogenous partners by immunoblot
T6 sequence: T3 sequence

[7] = molecular target: TopBP1 (Topoisomerase II binding protein 1), endogenous (human (endogenous in 293T)) (UniProt Q92547); assay: co-IP; antibodies to endogenous MTBP, cyclin C, Cdk8 or TopBP1 (control IgG) on Protein G Dynabeads in native lysates of HeLa Flip-In T-Rex, HeLa-Kyoto or 293T cells, 150 mM NaCl, 0.1% Triton X-100, 2 h at 4°C; unsynchronised or synchronised cells (M, G1, G1/S, S); TopBP1 IP with or without Cdk2-cyclin A and ATP added to the lysate
[8] = molecular target: cyclin C, endogenous (human (endogenous in HeLa and 293T)) (UniProt P24863); assay: as above

Row | Substance | binding [3] | binding [5] | binding [6] | further results
1 | Cdk8 (cyclin-dependent kinase 8), endogenous (from UniProt P49336 1-464) (enzyme) | binds | binds |  | binding [1]: no binding; binding [2]: binds; binding [4]: binds
2 | Treslin/TICRR (TopBP1-interacting replication stimulating protein/TopBP1-interacting checkpoint and replication regulator), endogenous (from UniProt Q7Z2Z1 1-1910) | binds |  | binds | binding [7]: binds
3 | Cdk19 (cyclin-dependent kinase 19), endogenous (from UniProt Q9BWU1 1-502) (enzyme) |  | binds |  | binding [8]: binds
4 | Med13 (mediator of transcription subunit 13), endogenous (from UniProt Q9UHV7 1-2174) |  | no binding |  | 
5 | cyclin C, endogenous (from UniProt P24863 1-283) |  | binds | binds | 
